Screen size: about 200,000 compounds; about 4,500 (2.2%) were called active. The inconclusive results got no clear call from the source; some entries with a clear call stand among them for comparison. Calls follow the shape of the dose curve; as a rule, active = well fitted inhibition curve with a large enough effect; inconclusive = small, poorly fitted or top-dose-only effect, or effect the other way; inactive = flat fitted curve, though single readings scatter. Potencies beside an inconclusive call are fits to weak or partial responses and may not hold up.
What follows are compounds tested against Cruzipain (Trypanosoma cruzi) (UniProt P25779) (assay: qHTS Assay for Promiscuous and Specific Inhibitors of Cruzain (without detergent)). Settings: purified cruzain, Z-FR-AMC fluorescence, no detergent.
UniProt P25779, sequence (P25779 whole entry, looked up): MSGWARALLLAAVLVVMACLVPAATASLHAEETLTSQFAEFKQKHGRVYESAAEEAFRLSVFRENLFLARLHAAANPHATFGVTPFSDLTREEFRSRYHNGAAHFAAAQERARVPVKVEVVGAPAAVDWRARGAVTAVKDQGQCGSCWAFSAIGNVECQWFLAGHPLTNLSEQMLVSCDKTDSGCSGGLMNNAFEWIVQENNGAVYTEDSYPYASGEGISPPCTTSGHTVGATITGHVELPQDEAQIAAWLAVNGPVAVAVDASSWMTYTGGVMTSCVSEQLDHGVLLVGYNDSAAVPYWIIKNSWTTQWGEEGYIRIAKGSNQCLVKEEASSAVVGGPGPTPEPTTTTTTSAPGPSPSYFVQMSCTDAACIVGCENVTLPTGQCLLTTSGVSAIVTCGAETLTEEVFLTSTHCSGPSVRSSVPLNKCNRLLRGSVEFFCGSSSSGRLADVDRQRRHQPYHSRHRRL
Method in brief: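 Purified cruzain at 1.5 nM, pre-incubated 15 min with compound at room temperature in 100 mM sodium acetate pH 5.5, 5 mM DTT, 0.00005% Triton X-100. Reaction started with 2 uM Z-FR-AMC; AMC fluorescence increase over 60 s gives rate.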
Also: nearly all actives have a fitted effect of over 40% in size.
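For max response, negative = inhibition in this document: plate controls were enzyme without inhibitor for no effect and buffer without enzyme for full effect.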
Potency is read from the fitted curve at half-maximal effect; tags tell the direction and shape of the fitted curve.

Compound	Potency	max response, negative = inhibition
CCCCCCCNC(=O)c1ccc(N2CCC3(CC2)OCCO3)c([N+](=O)[O-])c1	inconclusive: 39.8 µM [activator, single point]	–
CCCCCCCCCCCCCC(=O)O[C@H](CC(=O)O)C[N+](C)(C)C	inconclusive: 15.8 µM [activator, single point]	–
Cc1ccc(CNC(=O)c2cc(C)nc3c2c(C)nn3-c2ccc(C)cc2)cc1	–	inactive: -2.74%
O=c1cc(-c2ccccc2)oc2c1ccc1ccccc12	inconclusive: 39.8 µM [activator, single point]	–
O=C(Nc1cccc(Cl)c1Cl)C1CC(=O)N(c2ccc(Br)cc2)C1 (stereo not drawn)	active: 25.1 µM	–
COc1ccc(S(=O)(=O)c2c(O)c3ccc(C(=O)NCc4ccc(F)cc4)cc3[nH]c2=O)cc1	inconclusive: 25.1 µM [activator, partial curve]	–
CC(=O)Nc1ccc(NC(=O)CN(c2ccc(F)cc2)S(=O)(=O)c2ccc3c(c2)OCCO3)cc1	inconclusive: 39.8 µM [activator, single point]	–
N=C(N)S[C@H]1c2ccccc2-c2cc([N+](=O)[O-])ccc21	–	inactive: -17.7%
N#CC1=C2SCN(c3ccccc3)CN2C(=O)CC1c1c(Cl)cccc1Cl (stereo not drawn)	inconclusive: 31.6 µM [inhibitor, single point]	–
Cn1cc(-c2nc3cnc(Oc4ccccc4)nc3n(C)c2=O)c2ccccc21	–	inactive: 8.88%
COc1ccc(C2C(=O)N(C3CCCCCC3)CC(=O)N2Cc2ccc(C)cc2)cc1 (stereo not drawn)	–	inactive: 1.9%
O=C(CSc1ncnc2c1sc1ccccc12)Nc1ccc(Br)cc1	inconclusive: 31.6 µM [inhibitor, single point]	–
C/C(=N\NC(=O)c1cc(-c2cccc([N+](=O)[O-])c2)n[nH]1)c1ccccc1O	inconclusive: 10 µM [inhibitor, partial curve]	–
COc1ccc(-c2cc(C(=O)OC(C)C(=O)Nc3c(C)n(C)n(-c4ccccc4)c3=O)c3ccccc3n2)cc1 (stereo not drawn)	inconclusive: 31.6 µM [activator, single point]	–
CCOC(=O)/C=C1\NC(C)(C)Cc2cc(OC)c(O)cc21	–	inactive: 10.4%
COC(=O)CC1C(C)(C)C(OC(C)=O)C2[C@H](OC(C)=O)[C@]34O[C@]2(O)[C@]1(C)C3CC[C@]1(C)C4=CC(=O)OC1c1ccoc1 (stereo partly drawn)	inconclusive: 5.01 µM [activator, full curve]	–
CCCCSC1(SCCCC)N=C(N)C2(C#N)C(c3ccccc3)NC(C)=C(C)C12C#N (stereo not drawn)	inconclusive: 3.16 µM [inhibitor, single point]	–
CCOc1ccc(S(=O)(=O)c2c(C(=O)c3ccc(CC)cc3)cnc3ccc(C)cc23)cc1	active: 20 µM	–
COc1cccc(Nc2nc3ccccc3n3cnnc23)c1	inconclusive: 39.8 µM [activator, single point]	–
CCCOC(=O)c1c(NC(=O)C(C)Sc2nc(-c3ccccc3)cc(C(F)(F)F)n2)sc(C(=O)N(C)C)c1C (stereo not drawn)	inconclusive: 10 µM [activator, partial curve]	–
Cc1ccc(S(=O)(=O)Nn2c(C)ccc2C)cc1	inconclusive: 25.1 µM [inhibitor, single point]	–
COc1cc(NC(=O)N2c3ccccc3Sc3ccccc32)cc(OC)c1	inconclusive: 25.1 µM [inhibitor, single point]	–

Compound	Potency	max response, negative = inhibition
CCCS(=O)(=O)O	–	inactive: -5.5%
O=C1C(c2ccc(F)cc2)N(CCc2ccc(Cl)cc2)C(=O)CN1C1CCCCCC1 (stereo not drawn)	–	inactive: -7.51%
Cc1cc(C)c(S(=O)(=O)Nc2ccc3c4c(cccc24)CC3)c(C)c1	active: 20 µM	–
CC1=C(/C=C/C(C)=C\C=C\C(C)=C\C(=O)O)C(C)(C)CCC1	inconclusive: 39.8 µM [activator, single point]	–
O=C1CCCc2nn(-c3ccccc3)c(-c3ccncc3)c21	–	inactive: 16.3%
CNC(=S)N(CCc1c(C)[nH]c2ccc(OC)cc12)Cc1cc(OC)c(OC)c(OC)c1	inconclusive: 39.8 µM [activator, single point]	–
O=C(CSc1nc2ccc(Cl)cc2[nH]1)c1ccc2c(c1)OCO2	inconclusive: 39.8 µM [inhibitor, single point]	–
CCOC(=O)C(=CNc1cc(C)nn1-c1ccc(C)cc1)C(=O)OCC	inconclusive: 39.8 µM [activator, single point]	–
Cc1c(Cl)cccc1-n1ncc(C(=O)Nc2ccc(Br)cc2F)c1C1CCNCC1	–	inactive: -11.9%
COc1ccccc1S(=O)(=O)Cc1ccc(C(=O)NCc2ccc(Cl)cc2)o1	–	inactive: -9.03%
Cc1ccc(N2CCN(S(=O)(=O)c3cccc4ccccc34)CC2)cc1Cl	–	inactive: -20.4%
COc1ccc(S(=O)(=O)Nc2ccc(-c3cn4c(C)csc4n3)cc2)cc1	active: 25.1 µM	–
COc1ccc(-n2ncc3c(NC4CCCC4)ncnc32)cc1	–	inactive: -17.8%
CCOC(=O)c1c(NC(=O)CSc2nnc(C)c(=O)[nH]2)sc2c1CCCC2	inconclusive: 39.8 µM [activator, single point]	–
Cc1ccc(-n2nnnc2CNC(=O)c2cc(C(F)(F)F)cc(C(F)(F)F)c2)cc1C	inconclusive: 20 µM [activator, single point]	–
COc1cccc(CNC(=O)COc2cc(=O)n(C)c3ccccc23)c1	–	inactive: -14.2%
Nc1ccc(O)c2c(=O)cc(-c3ccccc3Cl)oc12	inconclusive: 31.6 µM [inhibitor, single point]	–
Cc1ccc(C)c(NC(=S)NCc2ccc3[nH]c4c(c3c2)CCCC4)c1	inconclusive: 25.1 µM [inhibitor, single point]	–
Cc1cccc(-n2c(-c3cccc([N+](=O)[O-])c3)nc3nc4ccccc4nc32)c1	inconclusive: 25.1 µM [inhibitor, single point]	–
CCn1c(SCC(N)=O)nnc1-c1cc2c(C)nn(-c3ccccc3)c2s1	inconclusive: 31.6 µM [activator, single point]	–
COc1ccc(S(=O)(=O)N2CCCCC2)cc1NS(=O)(=O)c1cc(Cl)ccc1Cl	active: 20 µM	–

From PubChem BioAssay AID1476 (National Center for Advancing Translational Sciences (NCATS), 2009)
